# Test results taken from article PMC4336329 (PLoS ONE, 2015).
# In all, about 310,000 compounds went through this assay and about 14,000 (4.5%) showed an effect of 50% or more. Effects have a minus sign here. The list shows a part of the results.
# Biological target: human ether-à-go-go-related gene (hERG) potassium channel (human, UniProt Q12809)
# Test: primary screen, population patch clamp on CHO cells stably expressing hERG
# 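Also: peak tail current of the secondary pulse compared with the same well before compound.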
# Sequence of human ether-à-go-go-related gene (hERG) potassium channel (Q12809 whole entry, looked up): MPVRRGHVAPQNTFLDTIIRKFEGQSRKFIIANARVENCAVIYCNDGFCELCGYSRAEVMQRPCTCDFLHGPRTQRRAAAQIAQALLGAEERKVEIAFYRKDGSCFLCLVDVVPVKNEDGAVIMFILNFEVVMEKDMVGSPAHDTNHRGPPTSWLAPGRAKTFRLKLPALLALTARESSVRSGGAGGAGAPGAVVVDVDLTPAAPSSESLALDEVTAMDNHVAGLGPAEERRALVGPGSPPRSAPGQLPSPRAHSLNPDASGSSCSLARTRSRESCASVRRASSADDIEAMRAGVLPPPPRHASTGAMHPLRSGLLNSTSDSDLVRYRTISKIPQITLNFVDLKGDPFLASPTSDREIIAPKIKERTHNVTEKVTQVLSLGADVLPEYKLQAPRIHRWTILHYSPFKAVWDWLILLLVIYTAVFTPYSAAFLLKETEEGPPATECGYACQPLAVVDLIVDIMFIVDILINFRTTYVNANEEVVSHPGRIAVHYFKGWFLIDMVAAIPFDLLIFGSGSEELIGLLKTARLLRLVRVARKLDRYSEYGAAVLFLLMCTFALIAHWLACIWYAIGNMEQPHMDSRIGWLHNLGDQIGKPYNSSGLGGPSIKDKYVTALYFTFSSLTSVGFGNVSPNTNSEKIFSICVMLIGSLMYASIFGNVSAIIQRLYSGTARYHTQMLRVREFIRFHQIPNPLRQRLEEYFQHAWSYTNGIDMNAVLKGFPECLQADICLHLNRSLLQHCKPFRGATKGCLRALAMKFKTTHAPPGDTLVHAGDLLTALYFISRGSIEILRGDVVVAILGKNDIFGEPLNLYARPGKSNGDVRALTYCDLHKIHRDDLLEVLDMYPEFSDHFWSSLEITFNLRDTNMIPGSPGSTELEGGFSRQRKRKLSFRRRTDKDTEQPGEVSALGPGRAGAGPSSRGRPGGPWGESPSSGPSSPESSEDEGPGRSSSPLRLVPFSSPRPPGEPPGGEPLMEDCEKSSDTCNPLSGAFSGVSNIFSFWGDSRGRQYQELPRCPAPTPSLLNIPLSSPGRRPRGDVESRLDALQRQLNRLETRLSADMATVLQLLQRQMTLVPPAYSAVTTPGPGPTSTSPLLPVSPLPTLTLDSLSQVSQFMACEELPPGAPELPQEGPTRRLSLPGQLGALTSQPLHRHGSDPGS
row,Compound,"hERG current change (%, negative = inhibition) at 10uM [%]"
1,COc1ccccc1C(=O)NCCC(=O)NCC(c1ccccc1OC)N1CCCC1 (stereo not shown),29.8
2,COc1cccc(CN2CC(C(=O)N3CCN(c4ccc(Cl)cc4)CC3)CCC2=O)c1 (stereo not shown),-70.9
3,CC(C)c1nc(=S)n(-c2ccccc2)[nH]1,17.5
4,COC(=O)CSc1nnc(NC(=O)/C=C\c2ccc3c(c2)OCO3)s1,20.3
5,CN(C)C(=O)c1ccc(NC(=O)COc2cccc(Oc3ccccc3)c2)cc1,-20.4
6,O=C(N/N=C/c1ccco1)c1ccn[nH]1,22.5
7,Cc1cc(NC(=O)c2ccccc2)no1,5.42
8,COC(=O)c1cc(NC(=O)CN(c2cccc(OC)c2)S(=O)(=O)c2ccccc2)ccc1Cl,-14.2
9,O=C(NCCN1CCOCC1)c1ccc2c(c1)N(Cc1ccccc1)C(=O)c1ccccc1S2,-1.92
10,Cc1cccc(-c2noc(CCc3ccccc3)n2)c1,-1.82
11,O=C(c1ccco1)N1CCN(C(=O)c2ccc(-c3ccccc3Cl)o2)CC1,-67.6
12,CCOC(=O)c1cccc(C(=O)OCC)n1,13.3
13,CC(CCc1ccccc1)NC(=O)COC(=O)c1cccs1 (stereo not shown),-3.94
14,Cc1c(NP(=O)(c2ccc(Br)cc2)c2ccc(Br)cc2)c(=O)n(-c2ccccc2)n1C,-65.7
15,Cc1ccc(S(=O)(=O)c2c(C)nn(-c3ccccc3)c2OC(=O)c2ccc(Br)o2)cc1,20
16,CCOc1cccc(CN2CCC(Oc3ccc(C(=O)NCc4ccccn4)cc3)CC2)c1,-13.8
17,COc1ccc(NC(=O)c2cccnc2N2CCCCC2)cc1,-14.1
18,CCCNCc1cc(OC)c(OCC(=O)NCCc2ccccc2)cc1Br,-38.1
19,Cc1cccc(NC(=O)CN2C(=O)S/C(=C\c3ccc(-c4cccc(C(=O)O)c4C)o3)C2=O)c1,5.27
20,Cc1cc(=O)oc(C)c1C(=O)NCCCN1CCN(c2ccccc2F)CC1,-40.4
21,COc1ccc(NC(=O)c2cc(=O)[nH]c3ccccc23)cc1,16.1
22,CCC(=O)N/N=C(\C)CC(=O)Nc1ccc2c(c1)OCCO2,27.5
23,O=S(=O)(c1ccc(Cl)cc1)c1nc(-c2ccco2)oc1N1CCCCC1,-7.91
24,O=[N+]([O-])c1cccc(-c2nnnn2-c2cccc(F)c2)c1,5.66
25,O=C(Nc1ccccc1Cl)c1ccccc1S(=O)(=O)c1ccccc1[N+](=O)[O-],7.38
26,CC(C)=NNc1nc(-c2ccc([N+](=O)[O-])cc2)cs1,-13.2
27,CC1(C)Cc2c(sc(NC(=O)COc3cccc4ccccc34)c2C#N)C(C)(C)N1,11.6
28,CC(=O)c1ccc(S(=O)(=O)NC2CC2)cc1,15.8

row,Compound,"hERG current change (%, negative = inhibition) at 10uM [%]"
1,COc1ccc(-n2nc(C(=O)NCC(=O)N3CCN(C)CC3)c3ccccc3c2=O)cc1,15.5
2,Cc1ccc(OC(=O)c2ccc3nc(C)sc3c2)cc1,17.1
3,Cc1ccc(C(=O)CCNc2cccc(Br)c2)o1,4.71
4,Cc1ccc(N2CC(C(=O)Nc3nnc(SCc4cccnc4)s3)CC2=O)cc1 (stereo not shown),-3.64
5,COc1ccc(OC)c(NC(=O)Cn2c(-c3ccc(Cl)cc3)noc2=O)c1,-15.6
6,CN(C1CCCCC1)S(=O)(=O)c1ccc(NC(=O)C2CCCCC2)cc1,-9.97
7,CCOC(=O)c1cnc2c(C(F)(F)F)cccc2c1N1CCN(C)CC1.Cl,-33.7
8,O=C(N/N=C/c1nn(-c2ccccc2)cc1-c1ccccc1)c1ccncc1,-8.55
9,CCCCOc1ccc(C(O)(CCN2CCOCC2)c2ccccc2)cc1.Cl (stereo not shown),-21.7
10,Cl.O=C(/C=C/c1cn(-c2ccccc2)nc1-c1cccs1)NCCN1CCOCC1,-39
11,CN(C)S(=O)(=O)c1cccc(NC(=O)CN2C(=O)NC3(CCc4ccccc4C3)C2=O)c1 (stereo not shown),13.9
12,COc1cc(OC)cc(C(=O)N=c2sc3ccccc3n2C)c1,25.3
13,COCCn1c(C)cc(C(=O)CSc2nnnn2C2CCCC2)c1C,-69
14,Cc1cccc(C)c1NS(=O)(=O)c1ccc(NC(=O)c2ccc(Cl)c([N+](=O)[O-])c2)cc1,13.9
15,Cc1ccc(NC(=O)c2ccc(F)cc2F)cc1NS(C)(=O)=O,6.69
16,O=S(=O)(NC1CCCC1)c1cccc(S(=O)(=O)N2CCC(n3nnc4ccccc43)CC2)c1,-26
17,CC(/C=N/NC(=O)c1ccccc1F)=C\c1ccccc1,12.7
18,CC1=NN(C(=O)Cn2ccc([N+](=O)[O-])n2)C(O)(C(F)(F)F)C1 (stereo not shown),11.3
19,O=C(COC(=O)c1cc([N+](=O)[O-])ccc1N1CCOCC1)Nc1cccc(F)c1,-28.5
20,Cc1cc(-c2ccc(C)c(S(=O)(=O)NC(C)Cc3ccco3)c2)on1 (stereo not shown),-39.4
21,COc1ccc(C(=O)C2CCCN(Cc3cccn3-c3ccc(Cl)cn3)C2)c(OC)c1 (stereo not shown),-76
22,Cc1ccccc1NC(=S)Nc1cccc([N+](=O)[O-])c1,12.6
23,COc1ccccc1C(=O)OCC(=O)c1cccc([N+](=O)[O-])c1,10.3
24,CCOC(=O)C1(C)/C(=N/Nc2ccc(S(N)(=O)=O)cc2)C(=O)C(=O)N1c1ccccc1 (stereo not shown),9.65
25,O=C1Nc2ccc(Cl)cc2C12OCCCO2,14.5
26,Cc1ccc(C(C(=O)NCC2CCCO2)N(C(=O)c2snc(C(N)=O)c2N)c2ccccc2)o1 (stereo not shown),15.6
27,CCCCOC(=O)/C=C/c1c(C)[nH]c(=O)[nH]c1=O,-5.32
